This is an account of results in PubChem BioAssay AID488969 (Vanderbilt High Throughput Screening Facility, 2010).

The full ranking holds about 110,000 compounds; the median of “z-score” is about -0.1, and the highest 2% start at about 2. Some of the results follow. Calls of active or inactive are those of the source.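 The calls were made as follows: active = z-score in the third read window above 3 or below -3; inactive = the rest.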

For this assay, the target named is Metabotropic glutamate receptor 8 (Rattus norvegicus) (UniProt P70579). The assay is described as follows: rat mGluR8 modulators via GIRK flux, primary screen, cell-based, thallium flux, HTS (AID 488969). The conditions noted are these: HEK293 rat mGluR8, GIRK (G protein-gated inwardly rectifying potassium channel) thallium flux, FluoZin2; at 10 µM; stronger effect = higher value; submaximal glutamate (EC20) added with thallium.
Chain of UniProt P70579 (P70579 whole entry, looked up): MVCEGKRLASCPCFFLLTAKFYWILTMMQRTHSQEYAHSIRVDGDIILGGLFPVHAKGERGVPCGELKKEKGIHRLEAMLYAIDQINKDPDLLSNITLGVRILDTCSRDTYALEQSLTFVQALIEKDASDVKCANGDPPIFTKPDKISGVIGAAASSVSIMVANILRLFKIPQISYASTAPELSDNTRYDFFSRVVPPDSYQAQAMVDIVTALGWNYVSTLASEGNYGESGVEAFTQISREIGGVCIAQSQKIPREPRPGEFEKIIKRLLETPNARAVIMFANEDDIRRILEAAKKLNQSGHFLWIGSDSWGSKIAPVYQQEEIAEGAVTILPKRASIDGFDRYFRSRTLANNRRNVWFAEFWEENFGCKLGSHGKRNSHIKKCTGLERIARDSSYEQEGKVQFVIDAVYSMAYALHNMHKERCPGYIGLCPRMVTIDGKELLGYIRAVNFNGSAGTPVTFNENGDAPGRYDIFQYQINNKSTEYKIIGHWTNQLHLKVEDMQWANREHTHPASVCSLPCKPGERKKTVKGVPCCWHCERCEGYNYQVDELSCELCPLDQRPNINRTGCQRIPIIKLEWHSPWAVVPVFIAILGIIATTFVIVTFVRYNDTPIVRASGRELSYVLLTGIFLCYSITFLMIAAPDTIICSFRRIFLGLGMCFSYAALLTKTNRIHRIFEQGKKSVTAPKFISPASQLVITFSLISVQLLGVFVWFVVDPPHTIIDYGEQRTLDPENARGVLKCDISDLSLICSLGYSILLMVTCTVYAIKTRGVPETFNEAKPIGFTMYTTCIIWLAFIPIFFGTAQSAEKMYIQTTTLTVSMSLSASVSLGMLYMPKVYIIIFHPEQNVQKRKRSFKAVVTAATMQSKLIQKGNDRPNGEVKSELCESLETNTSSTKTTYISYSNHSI
With `NC(=O)C1CCCN(C(=O)NC2CCCCC2)C1` (centres undefined), the z-score is -0.503.

On to `CCCC(=O)N(Cc1cc2cc(C)ccc2[nH]c1=O)c1ccccc1OC`, for which the z-score is -1.35.

Regarding `CC(OC(=O)c1cccc(N2C(=O)c3ccccc3C2=O)c1)C(=O)Nc1ccc(N(C)C)cc1` (centres undefined), the z-score was -0.193.

`Cc1nnc(SCCn2c(N3CCC(C)CC3)nc3c2c(=O)[nH]c(=O)n3C)s1` yielded a z-score of 0.362.

With `COc1cccc(OCc2nc3ccccc3[nH]2)c1`, the z-score was 1.49.

For the molecule `Cc1nccn1CC(=O)N/N=C/c1cccc(O)c1`, the z-score was -0.151.

Consider `Cc1ccc(CNC(=O)C(=O)NCC2OCCN2C(=O)c2cccs2)cc1` (centres undefined), for which the z-score is -0.105.

The molecule `CCc1ccccc1NC(=O)c1ccc(F)c(S(=O)(=O)N2CCC(C(N)=O)CC2)c1` gave a z-score of 0.0987.

Regarding `COc1ccc(C(=O)N(Cc2ccco2)Cc2cc3cc(C)ccc3[nH]c2=O)cc1OC`, the z-score is -0.268.

Consider `COc1cc(S(=O)(=O)N2CCCCCC2)ccc1-n1cnnn1`, for which the z-score was found to be 0.116.

`COc1ccc(CC2S/C(=C(\C#N)C(=O)NCc3ccco3)N(c3ccc(C)cc3)C2=O)cc1` (centres undefined) gave a z-score of 0.758.

Molecule `O=C(COc1ccc(S(=O)(=O)NCc2ccccc2)cc1Cl)NCC1CCCO1` (centres undefined) showed a z-score of -0.149.

Turning to `O=C(Nc1ccccc1)c1ccc(Br)c(S(=O)(=O)Nc2cccnc2)c1`, the z-score was 0.107.

`CCCCOC(=O)NC1CCS(=O)(=O)C1` (centres undefined) registered a z-score of -0.0674.

Turning to `Cc1c(NC(=O)Cn2cnc3c(=O)n(C)c(=O)n(C)c32)cccc1-c1nc2ccccc2o1`, the z-score is 0.183.

`CCN(CC)S(=O)(=O)c1cccc2nsnc12` showed a z-score of 0.377.

Turning to `Cc1ccc(C(=O)CCNc2ccc(Cl)cc2)o1`, the z-score is -0.157.

As to `COc1ccc(OC)c(NC(=O)C(=O)/C=C(\O)c2cc(OC)ccc2OC)c1`, the z-score is 0.111.

Consider `CC(Cc1ccccc1)NC(=O)CSc1nc2nc3c(cc2c(=O)n1-c1ccccc1)COC(C)(C)C3` (centres undefined), for which the z-score was determined as 0.586.

Molecule `CC(=O)Nc1c(C#N)c(C(C)(C)C)cn1C` came in with a z-score of 0.449.

Molecule `CCn1c(SCC(=O)Nc2cc(C)on2)nnc1-c1ccco1` showed a z-score of 0.0545.

For the molecule `CNC(=O)COC(=O)c1nc(-n2nc(C)cc2C)ccc1Cl`, the z-score is -0.115.

`CCC(=O)Nc1nnc(-c2ccncc2)s1` had a z-score of 0.0463.

With `O=C(CSc1nc(-c2ccco2)cc(C(F)(F)F)n1)Nc1ccc2c(c1)OCO2`, the z-score is -0.308.

`O=c1c2ccccc2nc2n1CCN2` showed a z-score of 0.253.

In the case of `O=C(Nc1ccccc1)c1ccc(OC(=O)c2cc3ccccc3o2)cc1`, the z-score was -0.284.

Molecule `COCCCNC(=O)c1ccccc1Oc1ccccc1` returned a z-score of -0.0104.

On to `CCCCOc1ccc(NC2=NC3(CCCCC3)N=C(N)N2)cc1`, for which the z-score was -0.113.

On to `COc1ccc(CCNC(=O)CN2CCN(c3cccc(C(F)(F)F)c3)CC2)cc1`, for which the z-score is -0.129.

In the case of `C=CCOc1ccc2c(OC)c3ccoc3nc2c1OC`, the z-score worked out at 0.395.

Take `CCCNC(=O)CN1C(=O)NC2(CCCc3cc(OC)ccc32)C1=O` (centres undefined): the z-score was 0.324.

Consider `Cc1ccc(S(=O)(=O)NCCC(=O)NCc2ccccc2)cc1`, for which the z-score is -0.0179.

On to `O=C(CCS(=O)(=O)c1ccc(Br)cc1)Nc1ccc2c(c1)OCO2`, for which the z-score came to 0.326.

For `COc1ccccc1C1(CC(=O)N2CCOCC2)CCOC(C(C)C)C1` (centres undefined), the z-score was found to be 0.121.

For `CSc1nsc(SCC(=O)Nc2c(C)n(C)n(-c3ccccc3)c2=O)n1`, the z-score was -0.133.

Consider `CCCCCOC(=O)Nc1nnc(CCCCC)s1`, for which the z-score was -0.221.

In turn, `COc1ccc(C(NC(=O)c2cccc(F)c2)c2ccccc2)cc1` (centres undefined) came in with a z-score of -0.165.

`CCOC(=O)c1cnc(-c2ccccc2)nc1Oc1ccc(C)cc1` returned a z-score of 2.4.

Turning to `COc1ccc(/C(N)=N/OC(=O)Oc2ccccc2)cc1`, the z-score is 0.353.

Regarding `Cn1cccc1/C=N/NC(=O)c1ccc(OC(F)(F)C(F)F)cc1`, the z-score is -0.413.

`Cc1ccc(NC(=O)C(c2ccccc2)C2CCCC2)cc1` (centres undefined): the z-score was active: 3.36.

Molecule `CCOC(=O)C1=NN(c2ccc(Cl)cc2)C(c2ccccc2)CC1=O` (centres undefined) returned a z-score of -0.352.

For `O=C(CN1C(=O)COc2ccccc21)N1CCc2ccccc2C1`, the z-score was -0.00361.

In turn, `COCCNC(=O)/C(C#N)=C1\N=C(N)c2ccccc21` came in with a z-score of 0.0573.

`Cc1ccccc1OCCCn1c(=O)sc2ccccc21` gave a z-score of 0.121.

Molecule `CCCCNC(=S)NNC(=O)c1cccnc1` displayed a z-score of -0.14.

In turn, `CCc1ccc(Nc2nnc(SCC(=O)Nc3cccc(S(=O)(=O)NC4=NCCCCC4)c3)s2)cc1` showed a z-score of -0.205.

As to `CCc1nnc(NC(=O)CN2CCOCC2)s1`, the z-score was 0.409.

With `c1ccc2c(CCNc3ncnc4nc[nH]c34)cccc2c1`, the z-score is -0.86.

For `Cc1ccc2nnc(Cl)n2n1`, the z-score is 0.23.

In turn, `O=C(Cn1nc(-c2ccccc2F)ccc1=O)NCc1ccc2c(c1)OCO2` came in with a z-score of -0.15.

As for `CCn1c(Cc2cccs2)nnc1SCC(=O)Nc1ccc(OC)c(OC)c1`, the z-score was -0.278.

With `CC(C)COc1ccc(Cc2cnc(N)nc2N)cc1`, the z-score was active: 7.02.

In turn, `CCc1ccc(OCC(=O)N2CCN=C2c2ccccc2)cc1` showed a z-score of -0.751.

As for `Cc1ccc(-n2nnnc2-c2cnn(-c3ccc(F)cc3)c2C(F)(F)F)cc1`, the z-score was -0.0832.

Take `CCn1c(N)c(C(N)=O)sc1=S`: the z-score turned out to be 0.203.

`Cc1ccc(S(=O)(=O)N/N=C\c2ccc(C)o2)cc1` returned a z-score of -0.111.

With `CCOC(=O)N1CCN(C(=O)CCNS(=O)(=O)c2cc(Br)cnc2N)CC1`, the z-score is -0.318.

The molecule `CCCS(=O)(=O)N1CCN(Cc2ccc([N+](=O)[O-])cc2)CC1` registered a z-score of -0.0547.

With `O=[N+]([O-])c1ccc(Cl)c(CN2CCSCC2)c1`, the z-score is -0.333.

On to `COc1ccc(COC(=O)NNC(=O)c2ccccc2Cl)cc1`, for which the z-score is 0.289.

As to `CN(C)S(=O)(=O)c1ccc(C(=O)NCc2cccs2)cc1`, the z-score amounted to 0.819.

Take `Cc1cc(C)n2nc(SCC(=O)N/N=C/c3cccc(Br)c3)nc2n1`: the z-score was -0.0108.

`COc1ccc(-c2nc(-c3ccc(Br)cc3)no2)c(OC)c1` returned a z-score of -0.0711.

On to `CN(C)S(=O)(=O)N1CCN(S(=O)(=O)N(C)C)CC1`, for which the z-score was -0.552.

Regarding `Cn1nnc2cc(C(=O)NCc3ccc4c(c3)OCO4)ccc21`, the z-score stood at 0.0433.

With `CN(c1ccccc1C(=O)Nc1ccc(S(=O)(=O)N2CCCC2)cc1)S(C)(=O)=O`, the z-score is -0.101.

On to `CSCCC(NC(=O)c1ccc([N+](=O)[O-])cc1Cl)C(=O)OCC(=O)N(C)C` (centres undefined), for which the z-score stood at 0.124.

In turn, `O=C(Nc1cc(C(=O)N2CCOCC2)ccc1N1CCCC1)c1cccs1` had a z-score of 0.184.

In turn, `COc1ccc(C2(O)CC3CCC(C2)N3c2nc(C)cc(C)c2C#N)cc1` (centres undefined) came in with a z-score of -0.362.

For `Nn1c(SCC(=O)Nc2ccc(Oc3ccccc3)cc2)nnc1C1CC1`, the z-score worked out at 0.0661.

Consider `O=C(Nc1nc(-c2ccc(Cl)cc2Cl)cs1)c1ccc(OCC2CCCO2)cc1` (centres undefined), for which the z-score is -0.323.

The molecule `CCOC(=O)C1=C(CSc2nc3c(cc2C#N)CN(C)CC3)OC(N)=C(C#N)C1c1ccc(F)cc1` (centres undefined) came in with a z-score of 1.37.

On to `COc1ccc(CCNC(=O)c2ccc(=O)[nH]n2)cc1OC`, for which the z-score is 0.0663.

Regarding `Cc1cccc(NC2=NC(C)(C)N=C(N)N2)c1C`, the z-score is -0.302.

`Cc1cccc(OCCCn2ccnc2)c1` yielded a z-score of 0.218.

`CCC(OC(=O)c1cccs1)C(=O)NCc1ccc2c(c1)OCO2` (centres undefined) had a z-score of 0.764.

Take `CCCc1cc(=O)[nH]c(Nc2ccc(N3CCCCC3)cc2)n1`: the z-score was -0.473.

Take `COc1ccc(C(=O)/C=C2/Sc3cc4c(cc3N2C)OCO4)cc1`: the z-score is -0.13.

In turn, `CC(C)(C)c1nnc2sc(SC/C(O)=C(\C#N)c3nc4ccccc4[nH]3)nn2c1=O` came in with a z-score of -0.281.

With `C=C(C)C1CC=C(C)/C(=N/Nc2ccccc2[N+](=O)[O-])C1` (centres undefined), the z-score was -0.027.

Take `O=C(Nn1c(O)c(C=C2N=c3ccccc3=N2)sc1=S)c1ccccc1`: the z-score was -0.256.

Molecule `CCS(=O)(=O)c1ccc(NC(=O)c2ccccc2Cl)c(O)c1` yielded a z-score of 0.13.

Consider `CCOc1cc(/C=N/O)cc(Br)c1OCc1ccc(Cl)cc1`, for which the z-score is -0.101.

In turn, `CCOC(=O)/C(N=Nc1cc(C(=O)O)cc(C(=O)O)c1)=C(\O)CCl` registered a z-score of 0.168.

In the case of `COc1ccc(C(CNC(=O)c2cccc(Br)c2)N2CCCC2)cc1` (centres undefined), the z-score was 0.745.

Take `Clc1ccc(-c2onc3c2CCCC3)cc1`: the z-score amounted to 0.232.

The molecule `O=C(N/N=C/c1ccc(O)cc1)c1cc(-c2ccc3c(c2)OCO3)n[nH]1` gave a z-score of 0.108.

`O=C(CSc1nc2sc3c(c2c(=O)n1Cc1ccco1)CCC3)N1CCc2ccccc21` showed a z-score of -0.0881.

In turn, `CC(Nc1cc(N2CCN(C(=O)C(C)(C)C)CC2)ccc1[N+](=O)[O-])c1ccccc1` (centres undefined) registered a z-score of -0.572.

For the molecule `Cc1ccc(CN(C(=O)C(F)(F)F)C(C(=O)NC2CCCCC2)c2ccco2)cc1` (centres undefined), the z-score was -1.39.

`O=C(NCCN1C(=O)S/C(=C\c2ccc(OC(F)F)cc2)C1=O)c1cnccn1` gave a z-score of -1.08.

Turning to `CCc1ccc(NC(=O)CN2CCc3ccccc3C2)cc1`, the z-score is -0.133.

Consider `C/C(N)=C(/C#N)C(=O)CSc1nnc(NC(C)C)s1`, for which the z-score was -0.0621.

Molecule `CCn1c(C(=O)N2CCc3ccccc3C2)cc2sccc21` returned a z-score of -0.52.

With `Cc1oc2cc(OCc3cnn(-c4ccccc4)c3)ccc2c(=O)c1Oc1ccccc1F`, the z-score was -0.247.

Turning to `COc1ccc(-c2c[n+]3c4n2CCCCC4=C(c2ccccc2)C3)cc1`, the z-score came out at 2.82.

Consider `CC1=C(C(=O)Nc2cc(C)ccc2C)C(c2cccs2)NC(=S)N1` (centres undefined), for which the z-score is -0.0019.

The molecule `CCOCCCNC(=O)CCCn1nc(C)n2c(cc3sccc32)c1=O` registered a z-score of -0.0689.

Turning to `CCn1c(CNC(=O)c2cccs2)nnc1SCC(=O)Nc1cc(Cl)ccc1C`, the z-score is -0.182.

As to `Cn1c(C(=O)OCC(=O)NCc2cccs2)cc2sccc21`, the z-score amounted to 0.0571.

In turn, `Cc1cccc2cc(C(c3nnnn3CC3CCCO3)N3CCc4ccccc4C3)c(=O)[nH]c12` (centres undefined) returned a z-score of 0.214.

`COc1cc(C(=O)NCCc2cn3ccccc3n2)cc(OC)c1OC` displayed a z-score of 0.348.

Take `CC(=O)Nc1cc(C(=O)N2CCCC2)ccc1Sc1ccc(C)cc1`: the z-score was -1.21.

As to `NC(=O)NCc1cccc(Cl)c1`, the z-score is -0.00917.

`FC(F)(F)c1cc(-c2cccs2)nc(NCc2ccco2)n1` returned a z-score of -0.0471.

For `Cc1cc(Cl)c(S(=O)(=O)Nc2cccc(O)c2)cc1OCC(N)=O`, the z-score is -0.133.

Take `COC(=O)c1cncc(O)c1`: the z-score came to 0.035.

In turn, `CCCOc1ccc([N+](=O)[O-])c(N)c1` returned a z-score of -0.16.

In turn, `Cc1ccc(NC(=O)NC(=O)N(C2CCCCC2)S(=O)(=O)c2ccccc2)cc1` returned a z-score of -0.229.

In turn, `NS(=O)(=O)c1cccnc1Nc1cccc(Cl)c1Cl` had a z-score of -0.19.

Consider `O=C(O)c1cn[nH]c1-n1cnnn1`, for which the z-score worked out at 0.428.

In the case of `Nc1nc(N)c2sc3nc(C(F)(F)F)cc(C(F)(F)F)c3c2n1`, the z-score is -0.0304.

The molecule `CN(C)c1nc(N)nc(CSc2nnnn2C)n1` registered a z-score of 0.687.
